# From the supplement of paper PMC10126150
# Sequences with one replicate were seen in a single cluster, so their values are uncertain.
# System: ATP
# Test: switch fluorescence ratio, 500 uM ATP over buffer (Cy3 cluster intensity, sum of 5 cycles each) (fold (ratio)); higher = stronger signal-on switching upon ATP binding; sequences stand for … in TCGTCGGCAGCGTCAGATGTGTATAAGAGACAGTTTTTTTTTTTTTTTTTTTTTTTTT…TC
# Conditions: aptamer strand: ATP DNA aptamer (quencher-CACCTGGGGGAGTATTGCGGAGGAAGG + anchor), 100 nM annealed; ATP concentration: 500 uM; one replicate
# Outline: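 Exposure to 500 uM ATP lasted 15 min at 22 °C before imaging, and a selection-buffer image was taken beforehand, for Cy3-labelled switching-strand clusters on a modified Illumina MiSeq flow-cell annealed to 100 nM quencher-labelled ATP aptamer. Five buffer/ATP cycles were run with NaOH stripping and re-annealing between them. The fluorescence ratio per cluster is summed target-cycle over summed buffer-cycle Cy3 intensity, averaged per switch-domain sequence. Clusters outside 100-1000 RFU were excluded.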
row,Sequence,switch fluorescence ratio
1,CAGGGGTGAA,1.01
2,ACTAAAGTAT,1.01
3,TTCGAGGCGA,1.68
4,CGATTGGATG,1.02
5,ACGTATTTGC,1.16
6,TTTCAGACGC,1.21
7,ATCTCTTTTC,1.01
8,CGATTAGGCG,1.03
9,TGGTATCAAA,0.995
10,ATGTCTTCCT,1.19
11,CGAGGTGAGG,1.01
12,GACGTAGTTG,1.02
13,TTGGATGGCA,1.05
14,GTGTGCCGTT,1.06
15,TTTGTCTTAG,1.01
16,ATCCGGATC,0.951
17,CACATCAGAG,1.03
18,GTCGGCCGTC,1.02
19,GGTAGGTGCC,1.03
20,AGGCCATTCG,1.01
21,TCGTTCACGG,1
22,GCACACGCAG,0.974
23,ATACGGGACG,1.05

row,Sequence,switch fluorescence ratio
1,TCCTAGCTGG,0.964
2,TCACGCTACG,1.49
3,CATAAACATC,1.03
4,GGAAGAAACT,0.995
5,ACAATACTTT,1.13
6,TCTGAAAAGT,0.996
7,AGTATTATCG,1.01
8,TGGCAACGCA,0.972
9,ACATTAAATT,1.07
10,TGAAACGGAC,1.4
11,CCATGACAGC,1
12,CTTTTTGGCC,0.994
13,ATTCAGGGGC,1.03
14,TACGGAAGTC,1
15,GAGAGGACTT,0.95
16,GTGCATTTAT,1.01
17,TCAACATTAC,1.41
18,CGAAGTAGGA,1.01
19,GATGACAACT,0.97
20,AGACTAATCA,1
21,ATATCACGCG,0.982
22,GGAAGATTAC,1.05
23,GTGCGAAACT,1.11

row,Sequence,switch fluorescence ratio
1,CTGGTCTGT,0.968
2,GTGGGTAGTA,0.985
3,AATATCACCT,1.21
4,TCAACGGGTC,1.08
5,GTCAAAATAT,0.993
6,AACGTGAATG,1.04
7,AGCTTATTAC,2.24
8,TTTTCGAGGC,0.962
9,GCAGCGTGGG,1.06
10,CTCGGGAGGA,0.968
11,CAATTGCTCA,1.02
12,ACCTAGACTG,0.934
13,AGACTACACC,1.3
14,ACCGTCTCGA,1.02
15,AAATCCCGAT,1.01
16,TGCACAGCTA,1.07
17,AGGTATGCTT,0.956
18,CTTGCCAGCT,0.987
19,ACAAGCGCTT,1.04
20,GTGACGATAA,1.18
21,GTAGAGAATG,0.955
22,ATTTCTCCTA,1.03
23,ACTTCTGCTG,1

row,Sequence,switch fluorescence ratio
1,TATCTAGCCT,1.05
2,ATGATAGTAG,1
3,AGTAAAGAT,0.988
4,GAATTTCAGG,1.05
5,TAAAAGGATA,0.957
6,TTGATCCTGA,1.01
7,TTTAACGCTT,1.03
8,AAACTTATC,1.06
9,TCCCAAGACC,1.24
10,TATGATTAGC,0.994
11,TGTCGGCTAC,6.04
12,CGTTTTGTGG,1.01
13,GGTGGATCCG,1.07
14,TACGTTCTAC,1.17
15,GGGTTCTGAC,0.999
16,CCTGTGAACA,0.999
17,GACCAGTAAC,1.09
18,CTTAACCGTC,1.04
19,CATATTAGGG,1.01
20,AGTGGGTATC,1.02
21,ACTGTGCTGT,1.01
22,AACAAGAGAA,1.05
23,CGTCCAAGCA,1.81

row,Sequence,switch fluorescence ratio
1,AGCGGAACAA,1.06
2,TGGCGGAATG,0.975
3,TTTCAAAACT,1.03
4,TTCCTACGTG,1.11
5,TGCGCACTAG,1.47
6,TGGGCCGGAG,1.01
7,CACGATCTCA,1.01
8,CCAGTAACAT,1.02
9,CTGTCTTTT,0.957
10,AGATCTGAAG,0.995
11,CACGAGGTGG,1.16
12,GGGACCGGAG,1.02
13,AGAAAGCTTA,0.997
14,CAGGCATGAT,1.02
15,TGGTGCCCCT,0.99
16,TAACGATGCA,1
17,GCGGTGGAAT,0.986
18,CGCCAGCGGC,1.03
19,CTCGTCTGGG,1.05
20,GGAGCTGCTG,0.977
21,CTTGGACGTC,0.991
22,ATTTAGTAGC,1.01
23,TTTGGTAGGC,0.948

row,Sequence,switch fluorescence ratio
1,TCTAAGCATG,1.03
2,GGTCCCAGGG,1.16
3,GACTCAGCTA,1.97
4,GTGTGCCACG,0.958
5,TCACCTGAGC,1.1
6,TCTCGTCCAT,1.05
7,TTTACATGTC,1.01
8,CTTTATAG,1.01
9,GGTATGATCA,1
10,TGCCGGTTAT,0.99
11,GTGCTGCCTC,1.04
12,CAGTAAACCG,0.988
13,TAGGTTATTT,1
14,GACAGGGTTC,1
15,GTATGGATGC,0.974
16,CATAGTGGGC,0.96
17,AGGTCAGAA,0.988
18,GGTTTGACGA,1
19,GGAGCAGGAT,1.06
20,GTGGTTACTT,1.04
21,CATTAGTCCT,1.03
22,GAAGGGTCCT,0.975
23,ATTGAGTCTT,1.01

row,Sequence,switch fluorescence ratio
1,GTTTTGCGGG,1.02
2,TTCAGACGTG,1.01
3,ACGTGTCTGG,0.987
4,TAACTTGTCT,1.02
5,TGGACGGTGG,0.969
6,GGGGGCACCG,0.992
7,CGGCGGCGTC,0.982
8,CTTACGGAAA,1.02
9,AGAGGGTGAG,0.98
10,AGCCTAGGCC,1.09
11,CGGTGTCGCG,1.01
12,CTTATATCTC,1.03
13,TCGATTTAGA,1.01
14,AAGGACCTTG,0.991
15,GTTTAGGTGC,1.12
16,AATGGGTAT,0.965
17,TTTCAGGGA,0.969
18,AACGTTTGTC,0.925
19,ATTATAGACC,1.03
